Results: article PMC9911399, “Two distinct binding modes provide the RNA-binding protein RbFox with extraordinary sequence specificity”
Changes are numbered by the printed parent chain; changes in the protein carry UniProt numbers. The list shows a part of the results.

T1: RBFOX1 RRM (Homo sapiens, UniProt Q9NWB1 109-208)
T1 sequence: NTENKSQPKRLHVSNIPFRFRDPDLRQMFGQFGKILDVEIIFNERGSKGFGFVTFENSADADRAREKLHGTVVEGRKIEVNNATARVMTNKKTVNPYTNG

B1: UUUGCAG (DNA:RNA)
RNA: GGGAGACCGGAAUUCAGAUUGUCCUUUGCAGUUAAAUCCCGUCGUAGCCACCA
DNA 1: CAATCTGAATTCCGGTCTCCC
DNA 2: TGGTGGCTACGACGGGATT
B2: UACUAUC (DNA:RNA)
RNA: B1 RNA with U26A, U27C, G28U, C29A, A30U, G31C
DNA 1: CAATCTGAATTCCGGTCTCCC
DNA 2: TGGTGGCTACGACGGGATT
B3: UCCAGGU (DNA:RNA)
RNA: B1 RNA with U26C, U27C, G28A, C29G, A30G, G31U
DNA 1: CAATCTGAATTCCGGTCTCCC
DNA 2: TGGTGGCTACGACGGGATT
B4: CGAAGGC (DNA:RNA)
RNA: GGGAGACCGGAAUUCAGAUUGUCCCGAAGGCUUAAAUCCCGUCGUAGCCACCA
DNA 1: CAATCTGAATTCCGGTCTCCC
DNA 2: TGGTGGCTACGACGGGATT
B5: CCUUUGC (DNA:RNA)
RNA: B4 RNA with G26C, A27U, A28U, G29U
DNA 1: CAATCTGAATTCCGGTCTCCC
DNA 2: TGGTGGCTACGACGGGATT
B6: GUGGGUC (DNA:RNA)
RNA: B4 RNA with C25G, G26U, A27G, A28G, G30U
DNA 1: CAATCTGAATTCCGGTCTCCC
DNA 2: TGGTGGCTACGACGGGATT
B7: UAUGAUU (DNA:RNA)
RNA: B1 RNA with U26A, C29A, A30U, G31U
DNA 1: CAATCTGAATTCCGGTCTCCC
DNA 2: TGGTGGCTACGACGGGATT
B8: GUGUGAA (DNA:RNA)
RNA: B1 RNA with U25G, U27G, G28U, C29G, G31A
DNA 1: CAATCTGAATTCCGGTCTCCC
DNA 2: TGGTGGCTACGACGGGATT
B9: UACCUGA (DNA:RNA)
RNA: B4 RNA with C25U, G26A, A27C, A28C, G29U, C31A
DNA 1: CAATCTGAATTCCGGTCTCCC
DNA 2: TGGTGGCTACGACGGGATT
B10: GGCGAUG (DNA:RNA)
RNA: B1 RNA with U25G, U26G, U27C, C29A, A30U
DNA 1: CAATCTGAATTCCGGTCTCCC
DNA 2: TGGTGGCTACGACGGGATT
B11: UCUGCGU (DNA:RNA)
RNA: B1 RNA with U26C, A30G, G31U
DNA 1: CAATCTGAATTCCGGTCTCCC
DNA 2: TGGTGGCTACGACGGGATT
B12: UCGGAGG (DNA:RNA)
RNA: B1 RNA with U26C, U27G, C29A, A30G
DNA 1: CAATCTGAATTCCGGTCTCCC
DNA 2: TGGTGGCTACGACGGGATT
B13: ACCACCC (DNA:RNA)
RNA: B4 RNA with C25A, G26C, A27C, G29C, G30C
DNA 1: CAATCTGAATTCCGGTCTCCC
DNA 2: TGGTGGCTACGACGGGATT
B14: AUCGCUG (DNA:RNA)
RNA: B1 RNA with U25A, U27C, A30U
DNA 1: CAATCTGAATTCCGGTCTCCC
DNA 2: TGGTGGCTACGACGGGATT
B15: GGCAAAG (DNA:RNA)
RNA: B4 RNA with C25G, A27C, G29A, G30A, C31G
DNA 1: CAATCTGAATTCCGGTCTCCC
DNA 2: TGGTGGCTACGACGGGATT
B16: AAGCUAU (DNA:RNA)
RNA: B1 RNA with U25A, U26A, U27G, G28C, C29U, G31U
DNA 1: CAATCTGAATTCCGGTCTCCC
DNA 2: TGGTGGCTACGACGGGATT
B17: AUUUCAG (DNA:RNA)
RNA: B1 RNA with U25A, G28U
DNA 1: CAATCTGAATTCCGGTCTCCC
DNA 2: TGGTGGCTACGACGGGATT
B18: UCCGCGA (DNA:RNA)
RNA: B1 RNA with U26C, U27C, A30G, G31A
DNA 1: CAATCTGAATTCCGGTCTCCC
DNA 2: TGGTGGCTACGACGGGATT
B19: ACUAGCG (DNA:RNA)
RNA: B4 RNA with C25A, G26C, A27U, G30C, C31G
DNA 1: CAATCTGAATTCCGGTCTCCC
DNA 2: TGGTGGCTACGACGGGATT
B20: UAAGCUC (DNA:RNA)
RNA: B1 RNA with U26A, U27A, A30U, G31C
DNA 1: CAATCTGAATTCCGGTCTCCC
DNA 2: TGGTGGCTACGACGGGATT
B21: AUCCGAA (DNA:RNA)
RNA: B1 RNA with U25A, U27C, G28C, C29G, G31A
DNA 1: CAATCTGAATTCCGGTCTCCC
DNA 2: TGGTGGCTACGACGGGATT
B22: GGCACUC (DNA:RNA)
RNA: B4 RNA with C25G, A27C, G29C, G30U
DNA 1: CAATCTGAATTCCGGTCTCCC
DNA 2: TGGTGGCTACGACGGGATT
B23: ACAAAAC (DNA:RNA)
RNA: B4 RNA with C25A, G26C, G29A, G30A
DNA 1: CAATCTGAATTCCGGTCTCCC
DNA 2: TGGTGGCTACGACGGGATT
B24: AUACACU (DNA:RNA)
RNA: B4 RNA with C25A, G26U, A28C, G29A, G30C, C31U
DNA 1: CAATCTGAATTCCGGTCTCCC
DNA 2: TGGTGGCTACGACGGGATT
B25: GGAAGAC (DNA:RNA)
RNA: B4 RNA with C25G, G30A
DNA 1: CAATCTGAATTCCGGTCTCCC
DNA 2: TGGTGGCTACGACGGGATT
B26: UGCAUAC (DNA:RNA)
RNA: B4 RNA with C25U, A27C, G29U, G30A
DNA 1: CAATCTGAATTCCGGTCTCCC
DNA 2: TGGTGGCTACGACGGGATT
B27: AACUUUG (DNA:RNA)
RNA: B1 RNA with U25A, U26A, U27C, G28U, C29U, A30U
DNA 1: CAATCTGAATTCCGGTCTCCC
DNA 2: TGGTGGCTACGACGGGATT
B28: GUUGGAU (DNA:RNA)
RNA: B1 RNA with U25G, C29G, G31U
DNA 1: CAATCTGAATTCCGGTCTCCC
DNA 2: TGGTGGCTACGACGGGATT
B29: UGACAGA (DNA:RNA)
RNA: B4 RNA with C25U, A28C, G29A, C31A
DNA 1: CAATCTGAATTCCGGTCTCCC
DNA 2: TGGTGGCTACGACGGGATT
B30: ACUCGAA (DNA:RNA)
RNA: B1 RNA with U25A, U26C, G28C, C29G, G31A
DNA 1: CAATCTGAATTCCGGTCTCCC
DNA 2: TGGTGGCTACGACGGGATT
B31: UUAGUUA (DNA:RNA)
RNA: B1 RNA with U27A, C29U, A30U, G31A
DNA 1: CAATCTGAATTCCGGTCTCCC
DNA 2: TGGTGGCTACGACGGGATT

Target: T1, RBFOX1 RRM
Experiment: EMSA; HiTS-Eq, 1 nM pool, 10 min; buffer printed only for the single-RNA assays: 10 mM Tris pH 7.5, 150 mM NaCl, 3.4 mM EDTA, 0.001% NP-40, 30 C
Conditions: tags: His6 N-terminal (pET28a); label: 5' 32P
Summary of the method: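 Purified wild-type or mutant RbFox RRM at increasing concentrations was equilibrated with 1 nM of 5′-radiolabelled RNA carrying 7 randomized nucleotides for 10 min in 50 µL. Unbound RNA was separated by 8% native PAGE and sequenced. Relative association constants came from read-count changes of each RNA species compared with the control reaction, normalised to the cognate motif.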

Binder | binding signal
B1 | 0.022 KA relative to UGCAUGU
B2 | 0.0027 KA relative to UGCAUGU
B3 | 0.00893 KA relative to UGCAUGU
B4 | 0.0104 KA relative to UGCAUGU
B5 | 0.0102 KA relative to UGCAUGU
B6 | 0.0192 KA relative to UGCAUGU
B7 | 0.0125 KA relative to UGCAUGU
B8 | 0.00704 KA relative to UGCAUGU
B9 | 0.00881 KA relative to UGCAUGU
B10 | 0.0266 KA relative to UGCAUGU
B11 | 0.0172 KA relative to UGCAUGU
B12 | 0.00791 KA relative to UGCAUGU
B13 | 0.00173 KA relative to UGCAUGU
B14 | 0.0101 KA relative to UGCAUGU
B15 | 0.00447 KA relative to UGCAUGU
B16 | 0.00447 KA relative to UGCAUGU

Binder | binding signal
B17 | 0.00978 KA relative to UGCAUGU
B18 | 0.0124 KA relative to UGCAUGU
B19 | 0.00565 KA relative to UGCAUGU
B20 | 0.0122 KA relative to UGCAUGU
B21 | 0.00534 KA relative to UGCAUGU
B22 | 0.0152 KA relative to UGCAUGU
B23 | 0.00148 KA relative to UGCAUGU
B24 | 0.000753 KA relative to UGCAUGU
B25 | 0.0164 KA relative to UGCAUGU
B26 | 0.0146 KA relative to UGCAUGU
B27 | 0.0106 KA relative to UGCAUGU
B28 | 0.0105 KA relative to UGCAUGU
B29 | 0.0182 KA relative to UGCAUGU
B30 | 0.00562 KA relative to UGCAUGU
B31 | 0.00891 KA relative to UGCAUGU
